Test results published in the supplement of paper PMC10338343.
± gives the standard deviation. The list shows a part of the results, in another mix than the full data.

Test system: MIWI (PIWIL1) piRISC loaded with L1MC piRNA (30 nt)
Assay: pre-steady-state target cleavage rate (min^-1); MIWI and MILI are mouse PIWI proteins and EfPiwi is from a freshwater sponge; tags in brackets are library labels; higher = faster piRNA-guided slicing of the target
Details: guide: L1MC piRNA 5'p-UAACUAAAUACUAUGCAAGCUGUAGGUCCU; auxiliary factor: 500 nM mouse GTSF1
Description: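 Cleave-'n-Seq: a library of target RNAs (target site embedded in constant flanks, ACAGCATTCCGCGTTAGTGATATCCG... 5' flank; DNA-blocked outside the site) at 0.1 nM was incubated with 1 nM active mouse MILI or MIWI piRISC (synthetic 5'-monophosphorylated piRNA guide) with or without 500 nM mouse GTSF1 at 33 °C for 1 min to 16 h. Uncleaved targets were sequenced and normalised to non-target controls, and the pooled three trials were fitted to a burst-and-steady-state model to give the pre-steady-state cleavage rate (min^-1; k3 is constrained to at most 1e-4). Sequence is the target site only; target names encode pairing extent (gX:gY) and contiguous / 1-mismatch / 2-mismatch / bulge geometry. Fits with R² ≤ 0 are excluded.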

Sequence	pre-steady-state target cleavage rate
UCCUGCUACAGCUUGCAUUGUAUUAAGUUA	0.502 ± 0.038
UCCUGGAUGUCGAUGCAUAGUAUUUAGUGA	0.0103 ± 0.0037
UCCUGGAUGAGCUAGCAUAGUAUAUAGUUA	0.194 ± 0.031
UCCUGGAUGUGCUUGCAUACUAUUUAGUUA	0.0877 ± 0.01
UCCUGGUACAGCUUGCAUAGUAUUUAGUAA	0.629 ± 0.056
UCGACCUACAGCUUGCAAAGUAAUUAGUUA	0.871 ± 0.043
UCCUGGAACUCGUUGCAUAGUAUUUAGUUA	0.185 ± 0.021
UCCUGCUACAGCUUGGAUAGUAUAUAGUUA	0.448 ± 0.041
UCCUGGAUGUGCUUGCAAAGUAUUUAGAUA	0.0429 ± 0.0083
AGGACCUACAGCUUGCAUUCUAUUUACAAA	0.17 ± 0.055
UCCACCUACUGCUUCCAUAGUAUUUAGUUA	0.074 ± 0.019
AGGAGCUACAGCUUGCAUAGUAUUUAGAUA	0.625 ± 0.079
UCCUGCUACAGCUUGCAUAGUAGUUAGUUA	0.235 ± 0.029
UCCUGGAUGUGCUUGCUUAGUAUUUAGAUA	0.0448 ± 0.011
UCCUCCUACGAGCUUGCAUAGUAUUUAGUUA	0.638 ± 0.065
UCCUCCUACAGCAUGCAUAGUAUUUAGUAA	0.717 ± 0.06
UCCUGGAUCAGCUUGCCAUAGUAUUUAGUUA	0.0581 ± 0.0097
UCCUCGUACAGCUUCCAUAGUAUUUAGUUA	0.0635 ± 0.015
UCCUGGAUGUCCUUGCCUAGUAUUUAGUUA	0.0145 ± 0.003
UCCACCAACAGCUUGCAUAGUAUUAAGUUA	0.42 ± 0.036
UCCACCUACAGCUUGCAUAGUAUUUAGUCUA	0.192 ± 0.035

Same assay, conditions: guide: L1MC piRNA 5'p-UAACUAAAUACUAUGCAAGCUGUAGGUCCU; auxiliary factor: none (no GTSF1)

Sequence	pre-steady-state target cleavage rate
UCCUGCUACAGCUUGCAUUGUAUUAAGUUA	0.00942 ± 0.0021
UCCUGGAUGAGCUAGCAUAGUAUAUAGUUA	0.00454 ± 0.0041
UCCUGGAUGUGCUUGCAUACUAUUUAGUUA	0.0191 ± 0.0037
UCCUGGUACAGCUUGCAUAGUAUUUAGUAA	0.036 ± 0.0067
UCGACCUACAGCUUGCAAAGUAAUUAGUUA	0.0086 ± 0.0031
UCCUGGAACUCGUUGCAUAGUAUUUAGUUA	0.00402 ± 0.0021
UCCUGCUACAGCUUGGAUAGUAUAUAGUUA	0.0171 ± 0.0042
UCCUGGAUGUGCUUGCAAAGUAUUUAGAUA	0.00745 ± 0.0027
UCCACCUACUGCUUCCAUAGUAUUUAGUUA	0.00376 ± 0.0014
AGGAGCUACAGCUUGCAUAGUAUUUAGAUA	0.0521 ± 0.013
UCCUGCUACAGCUUGCAUAGUAGUUAGUUA	0.0119 ± 0.0026
UCCUGGAUGUGCUUGCUUAGUAUUUAGAUA	0.00904 ± 0.003
UCCUCCUACGAGCUUGCAUAGUAUUUAGUUA	0.0316 ± 0.0069
UCCUCCUACAGCAUGCAUAGUAUUUAGUAA	0.00778 ± 0.0024
UCCUCGUACAGCUUCCAUAGUAUUUAGUUA	0.00365 ± 0.0012
UCCUGGAUGUCCUUGCCUAGUAUUUAGUUA	0.00418 ± 0.0022
UCCACCAACAGCUUGCAUAGUAUUAAGUUA	0.0209 ± 0.0043
UCCACCUACAGCUUGCAUAGUAUUUAGUCUA	0.0104 ± 0.0034
